In all, about 410,000 compounds went through this assay and about 850 (0.21%) were called active. Inconclusive means that the source gave no clear call. Such entries were picked first, then a sample of the others. Calls follow the shape of the dose curve; as a rule, active = well fitted inhibition curve with a large enough effect; inconclusive = small, poorly fitted or top-dose-only effect, or another doubt; inactive = no such curve, though single readings can be large or run the other way. Potencies beside an inconclusive call are fits to weak or partial responses and may not hold up.
Target: Glutaminase kidney isoform, mitochondrial (Homo sapiens) (UniProt O94925)
Sequence of UniProt O94925 (O94925 whole entry, looked up, canonical isoform): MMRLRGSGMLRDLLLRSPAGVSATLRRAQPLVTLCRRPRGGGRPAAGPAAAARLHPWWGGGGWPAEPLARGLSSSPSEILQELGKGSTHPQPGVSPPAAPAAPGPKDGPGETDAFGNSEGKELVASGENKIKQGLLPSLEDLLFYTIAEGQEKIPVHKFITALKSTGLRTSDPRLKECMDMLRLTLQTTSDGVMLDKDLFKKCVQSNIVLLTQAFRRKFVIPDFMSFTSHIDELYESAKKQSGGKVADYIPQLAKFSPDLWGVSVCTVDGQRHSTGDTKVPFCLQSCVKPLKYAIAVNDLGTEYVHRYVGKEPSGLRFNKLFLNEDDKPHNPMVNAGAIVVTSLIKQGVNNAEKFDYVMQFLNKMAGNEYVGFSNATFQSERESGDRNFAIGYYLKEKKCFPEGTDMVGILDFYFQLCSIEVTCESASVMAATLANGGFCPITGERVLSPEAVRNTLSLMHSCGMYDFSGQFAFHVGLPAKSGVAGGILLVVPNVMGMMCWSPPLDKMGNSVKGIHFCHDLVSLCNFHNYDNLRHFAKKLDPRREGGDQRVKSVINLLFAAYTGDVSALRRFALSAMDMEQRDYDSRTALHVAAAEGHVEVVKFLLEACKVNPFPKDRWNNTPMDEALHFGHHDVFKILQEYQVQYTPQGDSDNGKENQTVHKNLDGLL
Assay: qHTS for Inhibitors of Glutaminase (GLS)
Conditions: GLS enzymatic activity, qHTS titration; series mostly up to 45.5 µM; activity change, negative = inhibition: at the top concentration
How it was run: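 Read-out is an Amplex red fluorescence increase coupled through glutamate oxidase and HRP, measured before and after 30 min room-temperature incubation. hKGA is in 45 mM KH2PO4 (pH 8.2) with 0.02% Tween-20; glutamine added as 1mM solution.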
% is scaled to controls: 0 for no effect and ±100 for the full control effect; potency is read from the fitted curve at half-maximal effect; tags tell the direction and shape of the fitted curve.

Potency, active:
COc1ccc2nc(N3C(=O)C(O)=C(C(=O)c4ccco4)C3c3ccc(C)o3)sc2c1 (stereo not drawn) 10 µM
COc1ccc(-c2cc(C(F)F)n3ncc(C(=O)Nc4cc(C)on4)c3n2)cc1 0.708 µM
COc1ccc(N=C2S/C(=C\c3ccc(OCC(=O)O)cc3)C(=O)N2CCc2c[nH]c3ccccc23)cc1 10 µM

Potency, inconclusive:
COc1ccc2nc(SCC(=O)N3CCN(c4ccc(F)cc4)CC3)c(C#N)cc2c1 35.5 µM [inhibitor, single point]
Cc1ccc(SCC2(O)CCN(S(=O)(=O)c3ccc(Cl)cc3)CC2)cc1 35.5 µM [inhibitor, single point]
Cc1ccc(CCC(=O)Nc2ccc(CC(=O)O)cc2)o1 15.8 µM [inhibitor, single point]
CC1Cc2nc(SCC(=O)NCC3CCCO3)n(Cc3ccccc3)c(=O)c2S1 (stereo not drawn) 35.5 µM [inhibitor, single point]
O=C(CN1CCN(Cc2ccccc2)CC1)N1CCCCCC1 31.6 µM [inhibitor, single point]
CC1(C)Cc2cccc(OCC(=O)NCCOc3ccccc3)c2O1 11.2 µM [inhibitor, partial curve]
CNc1nc(C)c([N+](=O)[O-])c(Nc2ccc(OC)cc2)n1 35.5 µM [inhibitor, single point]
O=C1OC(/C(=C\Nc2cc(Cl)ccc2O)[N+](=O)[O-])c2ccccc21 (stereo not drawn) 10 µM [inhibitor, partial curve]
CC(C)(C)NC(=O)c1ccccc1NC(=O)C1CCCO1 (stereo not drawn) 6.31 µM [inhibitor, single point]
CCCSc1nc2sc3c(c2c(=O)n1-c1ccc(OC)cc1)CCN(C)C3 17.8 µM [inhibitor, single point]
Cc1c(NCc2nc3ccccc3[nH]2)c(=O)n(-c2ccccc2)n1C 5.62 µM [inhibitor, single point]
Cn1c(/C=C/c2ccc(Cl)cc2)nc2ccccc2c1=O 31.6 µM [inhibitor, single point]
Cc1[nH]c(=O)[nH]c(=O)c1NC(=O)c1ccc(OC(C)C)cc1 35.5 µM [inhibitor, single point]
Cc1ccc(-c2csc(Nc3ccc(S(N)(=O)=O)cc3)n2)o1 10 µM [inhibitor, partial curve]
CCc1c(C)sc(NC(=O)c2ccco2)c1C(=O)N1CCOCC1 17.8 µM [inhibitor, single point]
CCC(=O)Nc1cccc(NC(=O)c2cccc([N+](=O)[O-])c2C)c1 8.91 µM [inhibitor, partial curve]
CCCCn1c(SCC(=O)NCc2ccco2)nnc1-c1ccoc1C 22.4 µM [inhibitor, single point]
COc1ccc(-c2nc(-c3ccc(O)cc3O)cs2)cc1OC 15.8 µM [inhibitor, single point]
COc1ccc2oc(=O)c(C(=O)C[n+]3cccc(C)c3)cc2c1 35.5 µM [inhibitor, single point]
O=C(CSCc1cc(=O)[nH][nH]1)Nc1ccc(F)cc1 11.2 µM [inhibitor, partial curve]
Cn1c(SCC(=O)Nc2ccc(C(=O)O)cc2)nc2scc(-c3ccccc3Cl)c2c1=O 35.5 µM [inhibitor, single point]
C[C@@H]1O[C@@H](O[C@@H]2[C@@H](O)[C@H](OCCc3ccc(O)c(O)c3)O[C@H](CO)[C@H]2OC(=O)/C=C/c2ccc(O)c(O)c2)[C@H](O)[C@H](O)[C@H]1O 22.4 µM [inhibitor, single point]
CN1CCc2c(sc3c2C(=O)NC(c2ccccc2)N3)C1 (stereo not drawn) 3.98 µM [inhibitor, single point]
CCOC(=O)C(=C1Nc2ccccc2N1)n1c(-c2ccco2)nc2ccccc21 17.8 µM [inhibitor, partial curve, poor fit]
CCOC(=O)C1=C(CC)Nc2ccccc2N=C1NC(=O)c1ccc(S(=O)(=O)N(C)C)cc1 35.5 µM [inhibitor, single point]
CCOC(=O)C1CCN(C(=O)CC(NS(=O)(=O)c2ccc(OC)cc2)C(C)C)CC1 (stereo not drawn) 35.5 µM [inhibitor, single point]
COc1ccnc2c1c(=O)n(Cc1c(F)cccc1Cl)c(=O)n2C 3.55 µM [inhibitor, partial curve]
Cc1nn(Cc2ccc(C(=O)NC3CCCCC3)o2)c(C)c1Br 12.6 µM [inhibitor, single point]

Activity change, negative = inhibition, inactive:
COc1cccc(C2C(C(=O)c3cccs3)=C(O)C(=O)N2CCN2CCOCC2)c1 (stereo not drawn) -3.72%
Cc1cc(C)cc(N=Cc2[nH]c3ccc(Br)c(Cl)c3c2O)c1 20.5%
O=C(Nc1nnc(-c2ccc(Cl)cc2)o1)C1CCCCC1 1.78%
CCC(=O)Nc1ccc(-c2nnc(SCC(=O)NCC3CCCO3)n2C)cc1 (stereo not drawn) 1.35%
CCOC(=O)c1cnn(-c2ccc(OC)cc2)c1C1CCN(C(=O)OC(C)(C)C)CC1 -2.83%
CC(=O)NCC1CCCN(C(=O)c2oc3c(F)cccc3c2C)C1 (stereo not drawn) 3.89%
CCOc1ccc(NC(=O)c2c(Nc3ccc(OC)cc3OC)sc(C(=O)c3ccc(Cl)cc3)c2N)cc1 -2.89%
Cc1ccc(CNC(=O)Cc2c(C)c3cc4c(C)coc4cc3oc2=O)cc1 -1.32%
NC(=O)NC(CC(=O)OCC(=O)Nc1nnc(-c2ccccc2)o1)c1ccc(Cl)cc1 (stereo not drawn) 8.67%
Nc1nn(S(=O)(=O)c2cccc3nsnc23)cc1-c1ccc(Br)cc1 -3.77%
N#C/C(=C/c1ccc(Oc2ccc([N+](=O)[O-])cn2)cc1)C(=O)N1CCOCC1 -11.3%
COc1ccccc1C(=O)NC1(C(F)(F)F)NC(=O)N(CCc2ccccc2)C1=O (stereo not drawn) 3.63%
